Laboratory results from the supplement of paper PMC7125110.
± gives the standard error. Variants at the background level are over-represented here.

B1: glmS ribozyme (parent)
chain: AUAAAAGCGCCAGAACUACAGAAAUGUAGUUGACGAGGAGGAGGUUUAUCGAAUUUUCGGCGGAUGCCUCCAAA

How the values were obtained:
Conditions in all cases: with glucosamine-6-phosphate
[1] = variants of: B1; assay: self-cleavage kobs at 40 uM GlcN6P; higher = faster cleavage; RNA array
How it was run: (§1)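 E. coli RNA polymerase transcribed barcoded ribozyme variants in situ on sequenced MiSeq chips, which were tracked via a hybridised Cy3 probe at 37 °C. Tiles were imaged over ~14 h after glucosamine-6-phosphate (40 μM to 10 mM) in HEPES/KCl/Mg(OAc)2 buffer was flowed in. Normalised per-tile medians were fit to one- or two-exponential decays for kobs, and kcat and KM came from weighted Michaelis–Menten fits.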

[2] = variants of: B1; assay: self-cleavage kobs at 2500 uM GlcN6P; higher = faster cleavage; RNA array
How it was run: as §1

[3] = variants of: B1; assay: self-cleavage kobs at 640 uM GlcN6P; higher = faster cleavage; RNA array
How it was run: as §1

[4] = variants of: B1; assay: self-cleavage kobs at 160 uM GlcN6P; higher = faster cleavage; RNA array
How it was run: as §1

[5] = variants of: B1; assay: self-cleavage kobs at 10000 uM GlcN6P; higher = faster cleavage; RNA array
How it was run: as §1

| Variant | self-cleavage kobs at 40 uM GlcN6P [1] [s⁻¹] | self-cleavage kobs at 2500 uM GlcN6P [2] [s⁻¹] | self-cleavage kobs at 640 uM GlcN6P [3] [s⁻¹] | self-cleavage kobs at 160 uM GlcN6P [4] [s⁻¹] | self-cleavage kobs at 10000 uM GlcN6P [5] [s⁻¹] |
| --- | --- | --- | --- | --- | --- |
| A42U A48G G60A | < 1e-05 | < 1e-05 |  |  |  |
| A36U U45G | < 1e-05 | < 1e-05 | < 1e-05 | < 1e-05 | < 1e-05 |
| A39G U55C | 0.00123 ± 0.00015 |  | 0.0122 ± 0.0029 | 0.00406 ± 0.0011 | 0.0709 ± 0.018 |
| A42G C61U | < 1e-05 |  | < 1e-05 | < 1e-05 |  |
| G44A G60A | < 1e-05 | < 1e-05 | < 1e-05 | < 1e-05 | < 1e-05 |
| A42G A52G U65G | < 1e-05 | 8.47e-05 ± 2.8e-05 |  |  | 0.000346 ± 8.1e-05 |
| G41C G44U | < 1e-05 | < 1e-05 | < 1e-05 | < 1e-05 | < 1e-05 |
| G44C G60A | < 1e-05 | < 1e-05 | < 1e-05 | < 1e-05 | < 1e-05 |
| G37U G43A | < 1e-05 |  |  | < 1e-05 |  |
| G44C U56C | < 1e-05 |  |  |  |  |
| A39C U49C | < 1e-05 |  |  |  |  |
| G44C U47C | < 1e-05 |  |  |  |  |
| G40U U49G G63C | < 1e-05 |  |  |  |  |
| G38C U55C | < 1e-05 |  |  | < 1e-05 |  |
| G43A C50U | < 1e-05 | < 1e-05 | < 1e-05 | < 1e-05 |  |
| G41U A42C | < 1e-05 |  |  | < 1e-05 |  |
| G38C G51U | < 1e-05 |  | < 1e-05 |  | < 1e-05 |
| G41C C61A | < 1e-05 | < 1e-05 | < 1e-05 | < 1e-05 | < 1e-05 |
| A39C A42U C67G | < 1e-05 | < 1e-05 |  |  |  |
| A36U G51A | < 1e-05 |  |  | < 1e-05 |  |
| G44U C50G G60C | < 1e-05 |  |  |  |  |
| A42U G43A | < 1e-05 | < 1e-05 | < 1e-05 | < 1e-05 | < 1e-05 |
| A39U A42G U56G A64C | < 1e-05 |  |  |  | 4.69e-05 ± 1.8e-05 |
